The test system of assay [1] is DBA/1 mice. The experiment in a line: Therapeutic CIA study AA#79 (female mice), disease score. Type of assay: in vivo, mouse. The protocol:
(§1) DBA/1 mice (10 per group) aged 7-9 weeks were used for the CIA model. Mice from several vendors (Jackson Laboratories, Harlan Laboratories, and Taconic Farms) were tested and it was determined that Taconic mice are most appropriate for the CIA studies. Taconic mice develop more consistent and severe disease symptoms and show continued disease progression, while mice from the other vendors often show stable, less severe disease, even in the absence of treatment. female (F) mice in AA#79 and male (M) mice in AA#80, were tested to determine which gender to use in future experiments.
On the day before the study is initiated, the hair on the right flank of each mouse was removed using an electric clipper. A metal identification tag was placed on the right ear of each mouse. On Day 0, mice were immunized with 100 μL of chicken collagen type II/Complete Freund's Adjuvant (CII/CFA) emulsion in the right flank. On Day 20, the hair on the left flank of each mouse was removed using an electric clipper, and on Day 21, mice were immunized with 100 μL of chicken collagen type II/Incomplete Freund's Adjuvant (CII/IFA) emulsion in the left flank. Pre-filled syringes of CII/CFA and CII/IFA emulsion purchased from Hooke Laboratories were used to ensure consistent dosing with and potency of the immunogen.
Early arthritis symptoms, such as erythema and mild swelling, usually appear on Day 21, and on Day 28, more severe symptoms such as swelling in many digits and inflammation extending to the tarsal joint are typically present. Each limb is evaluated for severity of arthritis symptoms three times a week using a widely accepted arthritis severity score system, shown in Table 2. The scores from each of the 4 limbs are summed to yield the disease score of each mouse. […]
Treatment was initiated when the average disease score for the study animals was greater than four. This corresponded to Day 29 in AA#79 and Day 24 in […]. By waiting until animals are symptomatic, it was ensured that the model is performed in a therapeutic rather than prophylactic mode.
B7-H4-Ig, RPA110010, and murine B7-H4-Ig proteins were administered by intraperitoneal (IP) injection 3 times a week for a total of 8 doses. RPA110010 is an extracellular domain variant of B7-H4-Ig, SEQ ID NO:126. Control murine and human IgG proteins were given once a week for a total of 3 doses. […] All proteins were diluted to the desired concentration (500 μg in 500 μL, or 1 mg/mL) with sterile PBS immediately before injection. Vehicle control mice receive Amplimmune formulation buffer diluted 1:10 in PBS, with an injection volume of 500 μL.

Assay [2] relates to DBA/1 mice. As to the kind of experiment: Therapeutic CIA study AA#80 (male mice), disease score. Type of assay: in vivo, mouse. The conditions noted are these: male DBA/1 mice; 20 mg/kg IP 3× weekly, 8 doses from Day 24; vs control groups (FIG. 8). The protocol: as §1
On the day before the study is initiated, the hair on the right flank of each mouse was removed using an electric clipper. A metal identification tag was placed on the right ear of each mouse. On Day 0, mice were immunized with 100 μL of chicken collagen type II/Complete Freund's Adjuvant (CII/CFA) emulsion in the right flank. […]
Early arthritis symptoms, such as erythema and mild swelling, usually appear on Day 21, and on Day 28, more severe symptoms such as swelling in many digits and inflammation extending to the tarsal joint are typically present. Each limb is evaluated for severity of arthritis symptoms three times a week using a widely accepted arthritis severity score system, shown in Table 2. […]

“And” between values parts separate entries of the source, which are not always exact repeats. Equal values may be shown once.

B1: RPA110010: an extracellular domain variant of B7-H4-Ig, SEQ ID NO:126 (protein)
chain: MEWSWVFLFFLSVTTGVHSGFGISGRHSITVTTVASAGNIGEDGILSCTFEPDIKLSDIVIQWLKEGVLGLVHEFKEGKDELSEQDEMFRGRTAVFADQVIVGNASLRLKNVQLTDAGTYKCYIITSKGKGNANLEYKTGAFSMPEVNVDYNASSETLRCEAPRWFPQPTVVWASQVDQGANFSEVSNTSFELNSENVTMKVVSVLYNVTINNTYSCMIENDIAKATGDIKVTESEIKRRS[… human IgG1 Fc …]
modifications: Synthetic fusion protein
For the molecule B1, the CIA disease score is 1 (3×) and 0 (2×) and 2 with DBA/1 mice [1] (AA#79, Study Day 12, individual mouse (Tag#)); 1 (3×) and 2 (2×) and 3 in the assay on DBA/1 mice [1] (AA#79, Study Day 18, individual mouse (Tag#)); 2 (3×) and 4 and 3 (2×) in the assay with DBA/1 mice [1] (AA#79, Study Day 22, individual mouse (Tag#)); 4 (2×) and 3 (3×) and 2 in the assay with DBA/1 mice [1] (AA#79, Study Day 25, individual mouse (Tag#)); 4 (4×) and 5 (2×) in the assay with DBA/1 mice [1] (AA#79, Study Day 27, individual mouse (Tag#)); 7 and 5 (4×) and 4 with DBA/1 mice [1] (AA#79, Study Day 29, individual mouse (Tag#)). In addition, the CIA disease score in the assay with DBA/1 mice [1] (AA#79, Study Day 32, individual mouse (Tag#)) is 9 and 4 (2×) and 5 (2×); with DBA/1 mice [1] (AA#79, Study Day 34, individual mouse (Tag#)), 11 and 6 (2×) and 3 and 5; with DBA/1 mice [1] (AA#79, Study Day 36, individual mouse (Tag#)), 12 (2×) and 7 (3×) and 6; in the assay with DBA/1 mice [1] (AA#79, Study Day 39, individual mouse (Tag#)) it was 13 and 7 and 4 and 6 (2×) and 15; in the assay on DBA/1 mice [1] (AA#79, Study Day 41, individual mouse (Tag#)), 13 and 7 and 4 and 8 (2×) and 16; in the assay with DBA/1 mice [1] (AA#79, Study Day 43, individual mouse (Tag#)), 14 and 4 and 3 and 5 and 9 and 16. The CIA disease score in the assay on DBA/1 mice [1] (AA#79, Study Day 46, individual mouse (Tag#)) is 14 and 11 and 9 (2×) and 8 and 16; in the assay with DBA/1 mice [1] (AA#79, Study Day 48, individual mouse (Tag#)), 14 and 13 and 5 and 10 (2×) and 16; in the assay on DBA/1 mice [1] (AA#79, Study Day 50, individual mouse (Tag#)) it was 14 and 13 and 3 and 11 (2×) and 16; in the assay with DBA/1 mice [1] (AA#79, Study Day 54, individual mouse (Tag#)) it was 13 and 12 (2×) and 5 and 11 and 16; in the assay with DBA/1 mice [1] (AA#79, Study Day 57, individual mouse (Tag#)), 16 and 12 (2×) and 6 and 13 and 14. In addition, the “disease scores, AA#79” value in the assay on DBA/1 mice [1] (female DBA/1 mice, 20 mg/kg IP 3× weekly, 8 doses from Day 29, vs control groups (FIG. 7)) is “not effective”. Further, in the assay with DBA/1 mice [2], the “disease scores, AA#80” value is given as “not effective”.

The values are drawn from US9011853B2, “B7-H4 fusion proteins and methods of use thereof” (Amplimmune, Inc., priority 2009, dated 2015).
